Experimental data published in PubChem BioAssay AID686979 (National Center for Advancing Translational Sciences (NCATS), 2013).
In all, about 420,000 compounds went through this assay and about 50,000 (12%) were called active. Inconclusive means that the source gave no clear call. Such entries were picked first, then a sample of the others. Calls follow the shape of the dose curve; as a rule, active = well fitted inhibition curve with a large enough effect; inconclusive = small, poorly fitted or top-dose-only effect; inactive = flat fitted curve, though single readings scatter. Potencies of inconclusive entries are left out as doubtful fits.

Test: qHTS for Inhibitors of human tyrosyl-DNA phosphodiesterase 1 (TDP1): qHTS in cells in presence of CPT; also: nearly all actives have a fitted effect of over 55% in size
Details: chicken DT40 Tdp1-/-;hTDP1 cells + 20 nM CPT, ATP luminescence, 48 h; activity change, negative = growth inhibition: at 46.2 µM (top of the series)
Outline: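 Chicken DT40 Tdp1-/- cells stably complemented with human TDP1 were seeded at 400 cells/well in medium containing 20 nM camptothecin, exposed to pin-transferred compounds, and grown at 37 °C for at least 48 hr. Viability was read as ATP luminescence.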
% is scaled to controls: 0 for no effect and ±100 for the full control effect; potency is read from the fitted curve at half-maximal effect; tags tell the direction and shape of the fitted curve.

| Compound | Potency | activity change, negative = growth inhibition |
| --- | --- | --- |
| Cc1onc(-c2ccccc2)c1C(=O)OCCOc1ccccc1F | inconclusive [inhibitor, single point] |  |
| CCOc1cc(N2CCOCC2)c(OCC)cc1NC(=O)C(C)Oc1ccccc1 (configuration not stated) | inconclusive [inhibitor, single point] |  |
| CCOC(=O)C1CCN(C(=O)c2ccc3c(=O)n4nc(Nc5ccccc5CC)sc4nc3c2)CC1 | active: 13 µM |  |
| CCOC(=O)N(C)c1c(CC)nc2c(OCc3ccc(Cl)cc3)cccn12 | active: 20.6 µM |  |
| COc1ccc2nc(SCC(=O)NC3CCCc4ccccc43)[nH]c2c1 (configuration not stated) | inconclusive [inhibitor, single point] |  |
| Cn1c(=O)c2c(nc(NCCc3ccccc3)n2Cc2ccccc2Br)n(C)c1=O | inconclusive [inhibitor, full curve] |  |
| CCn1cnc2c1c(=O)n(Cc1cccc([N+](=O)[O-])c1)c(=O)n2Cc1ccccc1 | inconclusive [inhibitor, single point] |  |
| CCN(CC(=O)Nc1ccc(NC(C)=O)cc1)C(=O)/C=C/c1cn(-c2ccccc2)nc1-c1ccc(F)cc1 |  | inactive: 2.41% |
| COc1ccc(S(=O)(=O)N2CCOCC2)cc1NC(=O)COc1ccccc1 |  | inactive: -1.42% |
| Cc1cccc(NC(=O)CSc2nnc(CNC(=O)c3ccc(S(=O)(=O)N(C)C)cc3)n2-c2cccc(C)c2)c1 | active: 16.4 µM |  |
| CC(C)N(Cc1ccccc1)C(=O)CN1C(=O)NC2(CCOc3ccccc32)C1=O (configuration not stated) |  | inactive: -23.9% |
| COc1ccc(-c2nc(CN3CCC(C(=O)NCc4ccc(C)cc4)CC3)c(C)o2)cc1OC | inconclusive [inhibitor, single point] |  |
| O=C(CO/N=C/c1ccccc1O)NNC(=O)c1ccccc1Cl | active: 0.461 µM |  |
| COCC1CCCN(Cc2ccc3c(c2)CN(C(=O)c2cnn(C(C)C)c2)CCO3)C1 (configuration not stated) |  | inactive: 12.7% [at 9.04 µM] |
| CNc1c(NC(=O)C2CCC(C)CC2)c(=O)oc2ccccc12 (configuration not stated) |  | inactive: -14.7% |
| COC(=O)c1cc(S(=O)(=O)N2CCCCCC2)c[nH]1 |  | inactive: 1.88% |
| COc1ccc(CNCCCn2cnc(C(=O)Nc3ccc(C)c(C)c3)n2)cc1 | inconclusive [inhibitor, single point] |  |
| Cc1cccc2cc(CN(Cc3cccnc3)C(=O)c3ccccc3F)c(Cl)nc12 | inconclusive [inhibitor, single point] |  |
| Cc1ccc(CN2CCN(Cc3cccc(-n4cccn4)c3)CC2CCO)cc1 (configuration not stated) | active: 11.6 µM |  |
| CCOc1ccc(CNC(=O)CCCn2c(=O)c3cccn3c3ccccc32)cc1 | inconclusive [inhibitor, single point] |  |
| Cc1cc(OC(C)C(=O)Nc2cccnc2)ccc1Cl (configuration not stated) | inconclusive [inhibitor, partial curve, poor fit] |  |
| O=C(Cn1cccc1)N1CCc2ccccc21 |  | inactive: -18.9% |
| CCOc1cccc(-c2nnc(SCC(=O)Nc3cccc(OC)c3)n2N)c1 | inconclusive [inhibitor, single point] |  |
| CC(=O)OCC(=O)[C@@]1(O)[C@H](OC(C)=O)C[C@H]2[C@@H]3CCC4=CC(=O)C=C[C@]4(C)[C@@]3(F)[C@@H](O)C[C@@]21C |  | inconclusive: -31.5% [inhibitor] |

| Compound | Potency | activity change, negative = growth inhibition |
| --- | --- | --- |
| c1ccc(NC(c2ccccc2)c2ccncc2)cc1 (configuration not stated) |  | inactive: -23.9% |
| Cc1ccc(NC(=O)COc2ccccc2C#N)cc1S(=O)(=O)N1CCCCCC1 | inconclusive [inhibitor, single point] |  |
| CCOc1ccccc1Nc1nc2ccccc2nc1NS(=O)(=O)c1ccc(Cl)cc1 | inconclusive [inhibitor, full curve, poor fit] |  |
| CC(C)COC(=O)C(C#N)c1nc2ccccc2nc1N1CCN(Cc2ccccc2)CC1 (configuration not stated) | inconclusive [inhibitor, single point] |  |
| CC(C)n1c(N2CCN(C(=O)c3cccs3)CC2)nc2ccccc21 | inconclusive [inhibitor, partial curve, poor fit] |  |
| Cc1cccc(NC(=O)Cc2nc(-c3c[nH]c(C(=O)N4CCCC4)c3)cs2)c1 | inconclusive [inhibitor, single point] |  |
| Cc1ccccc1OCC1CN(CN2CCOCC2)C(=O)O1 (configuration not stated) |  | inconclusive: -30.2% [inhibitor] |
| CC(C)n1ncc2c(C(=O)N3CCN(Cc4cccs4)CC3)cc(C3CC3)nc21 | inconclusive [inhibitor, single point] |  |
| COc1cccc(-c2cc(=O)c3cc(NC(C)=O)ccc3[nH]2)c1 | inconclusive [inhibitor, single point] |  |
| Cc1cc(F)ccc1S(=O)(=O)Nc1nc2ccccc2nc1Cl |  | inconclusive: -32.5% [inhibitor] |
| O=C(CCc1ccccc1)N1CCN(Cc2ccc(F)cc2Cl)CC1 |  | inactive: -1.8% |
| COc1cccc(CNc2nc(Cl)nc3nc[nH]c23)c1 | active: 15.8 µM |  |
| O=C(CN1CCN(S(=O)(=O)c2ccc(Cl)cc2)CC1)Nc1ccc2c(c1)OCO2 | inconclusive [inhibitor, single point] |  |
| O=C(NCCc1ccc(O)cc1)c1ccc(Cl)cc1 |  | inactive: -27.4% |
| CC(Sc1nnnn1-c1ccccc1)C(=O)Nc1ccccc1-c1ccccc1 (configuration not stated) | inconclusive [inhibitor, single point] |  |
| CC1CCN(C(=O)CN2C(=O)NC3(CCCCCC3)C2=O)CC1 |  | inactive: -5.27% |
| COc1ccc(OC)c(/C(C)=N/Nc2ccc(C(=O)O)cc2)c1 |  | inactive: -6.49% |
| CC(OC(=O)CSc1ccc([N+](=O)[O-])cc1)C(=O)NCc1ccccc1 (configuration not stated) | active: 20.6 µM |  |
| COc1ccc(-c2cc(OC(=O)c3ccccc3Cl)c3c(C)oc(C)c3c(=O)c2)cc1OC | active: 23.1 µM |  |
| COc1cc(OC)c(NS(=O)(=O)c2c(C)nc3sc(C)cn3c2=O)cc1Cl | inconclusive [inhibitor, single point] |  |
| O=C(NCCCn1ccnc1)c1ccc(S(=O)(=O)N2CCCCCC2)cc1 | inconclusive [inhibitor, single point] |  |
| CCOc1cccc(C(=O)Nc2ccc3oc(-c4ccncc4)nc3c2)c1 | inconclusive [inhibitor, single point] |  |
| N#CC1(Cc2ccc(Cl)cc2)c2ccccc2C=CN1C(=O)c1ccccc1 (configuration not stated) | inconclusive [inhibitor, single point] |  |
| CCCc1nnc(NC(=O)Cn2c(=O)oc3cc(Br)ccc32)s1 |  | inconclusive: -35.3% [inhibitor] |

| Compound | Potency | activity change, negative = growth inhibition |
| --- | --- | --- |
| CCc1nnc(SCc2cccc(Cl)c2)c2cc3sccc3n12 | inconclusive [inhibitor, partial curve] |  |
| Nc1c(C(=O)C2CC2)sc2nc(-c3cccs3)cc(C(F)(F)F)c12 | inconclusive [inhibitor, single point] |  |
| Cc1cc2cc(CNC(=S)NC3CCCCC3)ccc2n1C | inconclusive [inhibitor, single point] |  |
| Cn1c(=O)c2c(nc(NCCOc3ccc(F)cc3)n2C)n(C)c1=O | inconclusive [inhibitor, single point] |  |
| Cc1ccc(C2(C)NC(=O)N(CC(=O)NC(=O)NC(C)(C)C)C2=O)cc1 (configuration not stated) |  | inactive: -0.95% |
| CCC1CCCCN1CCCNC(=O)C(C)n1nc(C)c2sc3ccccc3c2c1=O (configuration not stated) | inconclusive [inhibitor, single point] |  |
| COc1ccc2c(CNC3CCCCCC3)c(C(=O)O)n(Cc3ccc(C)cc3)c2c1 | active: 25.9 µM |  |
| CCCC(=O)Nc1cccc(NC(=S)NC(=O)C(C)Oc2ccc(Cl)cc2Cl)c1 (configuration not stated) |  | inactive: -2.94% |
| C=CC[n+]1c(-c2ccc(Cl)cc2Cl)csc1Nc1ccc(NC(C)=O)cc1 | inconclusive [inhibitor, single point] |  |
| CNC(=O)c1c(NC(=O)c2ccc3ncsc3c2)sc(C)c1C | inconclusive [inhibitor, single point] |  |
| CCOc1ccc(C2CC(c3cccc(Cl)c3)n3nc(N)nc3N2)cc1 (configuration not stated) | active: 7.31 µM |  |
| Cc1ccccc1NS(=O)(=O)c1ccc(C(=O)NCC2CCCO2)cc1 (configuration not stated) | inconclusive [inhibitor, single point] |  |
| COc1cc(C2C(C#N)=C(N)Oc3c2ccc2ccccc32)ccc1OCC(=O)Nc1ccc(C)cc1 (configuration not stated) | inconclusive [inhibitor, single point] |  |
| Cc1c(-c2cccc(NC(=O)c3cccs3)c2)nc2ncccn12 |  | inactive: -18.9% |
| COc1ccc2c(c1)-c1nc(-n3ncc(C(=O)NCc4cccnc4)c3C3CC3)ncc1CC2 |  | inactive: -5.65% [at 9.04 µM] |
| Cc1cc(-c2ccncc2)n2ncc(-c3ccccc3)c2n1 | inconclusive [inhibitor, single point] |  |
| N#Cc1ccc(-c2ccccc2)nc1SCC(=O)c1cccc(Cl)c1 | inconclusive [inhibitor, single point] |  |
| Cc1nnc(N/N=C/c2ccccc2O)n1N |  | inactive: -16.7% |
| COc1cccc(CNCc2ccccn2)c1OC |  | inactive: -21.6% |
| CCCN(CC1CC1)C(=S)NC(=O)c1cc(Br)ccc1Cl | inconclusive [inhibitor, single point] |  |
| CN(C)C1=NCCN1CCC1CCCC1 | inconclusive [inhibitor, single point] |  |
| O=C(Cn1cc(SCc2ccc(F)cc2)c2ccccc21)N1CCCCC1 | active: 16.4 µM |  |
| CSCCC(NC(=O)c1ccccc1)C(=O)Nc1ccc(C)cc1 (configuration not stated) |  | inactive: -8% |
| Cc1ccc(C)c(S(=O)(=O)N2CCN(C(=O)/C=C/c3ccco3)CC2)c1 | inconclusive [inhibitor, single point] |  |
